# This is one part of the list. Each Rep nickase domain was tested in vitro on the same pool of single strands for 1 h at 37 °C with 3 µM enzyme; only the middle of the 90-letter strands is printed. Numbers give uncut DNA relative to the enzyme-free pool, as log2; more negative means more cut, near 0 not cut, and no call is made. Counts are relative to all reads; where an enzyme cuts many sequences, the uncut ones exceed 0.
# What was measured:
# Assay in all cases: uncleaved DNA left, log2 of reads against the no-enzyme library (log2 ratio); higher = less cleavage (more negative = more Rep cleavage of the k-mer); sequences stand for … in CTCGTCCG…ACCGGAGA
# [1] = tested on: T1, Rep nickase domain of Muscovy duck circovirus
# T1 sequence (Rep 1-111, printed without the tag): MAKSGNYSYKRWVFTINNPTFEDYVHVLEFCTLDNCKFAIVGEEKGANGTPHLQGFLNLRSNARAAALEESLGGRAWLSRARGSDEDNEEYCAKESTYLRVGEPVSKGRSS
# Method: (§1)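 A pool of 90-nt single-stranded DNAs with seven random bases just before the constant AC of the nick site (name = the seven bases) was cut by 3 µM recombinant His6-SUMO-tagged Rep nickase domain (300 nM DNA, 50 mM HEPES pH 8.0, 50 mM NaCl, 1 mM MnCl2, 1 h, 37 °C, three replicates). Uncut DNA was amplified and sequenced.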
# [2] = tested on: T2, Rep nickase domain of banana bunchy top virus
# T2 sequence (Rep 1-94, printed without the tag): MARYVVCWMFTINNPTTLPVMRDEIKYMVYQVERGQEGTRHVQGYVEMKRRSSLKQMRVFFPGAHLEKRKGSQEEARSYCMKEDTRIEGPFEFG
# Method: as §1
# [3] = tested on: T3, Rep nickase domain of cabbage leaf curl virus
# T3 sequence (Rep 1-116, printed without the tag): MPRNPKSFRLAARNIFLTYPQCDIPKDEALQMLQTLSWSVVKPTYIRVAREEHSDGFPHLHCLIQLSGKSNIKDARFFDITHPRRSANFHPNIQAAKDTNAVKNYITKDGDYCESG
# Method: as §1
# [4] = tested on: T4, Rep nickase domain of chickpea chlorotic dwarf virus
# T4 sequence (Rep 1-124, printed without the tag): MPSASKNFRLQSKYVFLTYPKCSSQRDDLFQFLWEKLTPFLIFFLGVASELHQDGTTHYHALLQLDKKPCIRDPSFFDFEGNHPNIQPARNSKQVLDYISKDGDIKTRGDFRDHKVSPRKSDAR
# Method: as §1
# [5] = tested on: T5, Rep nickase domain of faba bean necrotic yellows virus
# T5 sequence (Rep 1-98, printed without the tag): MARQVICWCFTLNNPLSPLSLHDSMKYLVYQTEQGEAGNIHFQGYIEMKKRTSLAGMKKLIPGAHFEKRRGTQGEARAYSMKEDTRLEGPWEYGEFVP
# Method: as §1
# [6] = tested on: T6, Rep nickase domain of maize striate mosaic virus
# T6 sequence (Rep 1-117, printed without the tag): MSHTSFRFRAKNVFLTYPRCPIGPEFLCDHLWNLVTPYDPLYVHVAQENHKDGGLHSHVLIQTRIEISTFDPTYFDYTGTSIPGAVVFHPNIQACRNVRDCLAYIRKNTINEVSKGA
# Method: as §1
# [7] = tested on: T7, Rep nickase domain of porcine circovirus 2
# T7 sequence (Rep 2-116, printed without the tag): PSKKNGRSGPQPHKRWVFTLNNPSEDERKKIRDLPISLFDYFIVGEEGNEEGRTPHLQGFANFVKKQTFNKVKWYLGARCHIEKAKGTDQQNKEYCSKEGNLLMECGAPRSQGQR
# Method: as §1
# [8] = tested on: T8, Rep nickase domain of tomato golden mosaic virus
# T8 sequence (Rep 1-124, printed without the tag): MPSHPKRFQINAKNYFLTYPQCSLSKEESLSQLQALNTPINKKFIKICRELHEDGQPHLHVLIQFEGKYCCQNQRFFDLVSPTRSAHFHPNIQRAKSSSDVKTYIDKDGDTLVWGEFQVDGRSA
# Method: as §1
# [9] = tested on: T9, Rep nickase domain of tomato yellow leaf curl virus
# T9 sequence (Rep 1-136, printed without the tag): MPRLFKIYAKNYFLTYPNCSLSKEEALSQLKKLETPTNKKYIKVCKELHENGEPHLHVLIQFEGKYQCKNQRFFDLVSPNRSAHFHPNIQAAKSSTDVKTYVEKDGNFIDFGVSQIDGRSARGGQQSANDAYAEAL
# Method: as §1
# [10] = tested on: T10, Rep nickase domain of wheat dwarf virus
# T10 sequence (Rep 1-137, printed without the tag): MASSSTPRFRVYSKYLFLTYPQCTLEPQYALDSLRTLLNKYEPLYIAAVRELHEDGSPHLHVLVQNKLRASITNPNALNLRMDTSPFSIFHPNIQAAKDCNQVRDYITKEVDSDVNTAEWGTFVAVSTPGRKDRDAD
# Method: as §1
Sequence,uncleaved DNA left (log2) [1],uncleaved DNA left (log2) [2],uncleaved DNA left (log2) [3],uncleaved DNA left (log2) [4],uncleaved DNA left (log2) [5],uncleaved DNA left (log2) [6],uncleaved DNA left (log2) [7],uncleaved DNA left (log2) [8],uncleaved DNA left (log2) [9],uncleaved DNA left (log2) [10]
CGCGATA,-0.214,-0.0696,-0.355,-0.419,-0.103,-0.637,-0.0943,-0.163,-0.24,-0.165
TTATTTA,-0.198,0.0584,0.145,-0.718,-0.0184,0.239,-0.136,0.0145,0.0458,0.0442
GGCCCGG,0.0671,0.0473,0.518,1.4,0.0738,1.94,0.0943,0.127,-0.0246,0.0255
CTGGATT,0.234,0.164,0.302,0.498,0.209,1.57,-0.0528,0.177,0.273,0.301
GACTCAC,0.0976,0.113,0.209,0.518,0.0539,0.595,-0.337,0.0893,0.212,0.178
AGTAGTC,0.0324,0.00567,-0.0308,0.11,-0.116,-0.459,0.0314,-0.0364,0.122,0.00223
CGTGTAG,-0.131,-0.149,-0.698,-0.482,-0.00516,-1,-0.0498,-0.119,0.0164,-0.219
CACGCGA,-0.0217,-0.0211,-0.77,-0.351,-0.0929,-0.77,-0.000893,-0.0684,-0.0173,-0.101
CGCGCTA,-0.166,-0.0402,-0.277,-0.34,-0.105,-0.454,-0.121,-0.168,-0.00342,-0.164
CTTTTTT,-2.97,-0.631,-0.205,-2.44,-0.19,-0.632,-3.35,-0.0438,0.0595,-0.0979
ACATTAA,-0.0872,-0.0692,-0.256,-0.332,-0.106,-0.815,0.0755,-0.0466,-0.109,-0.0229
GACATCA,-0.00556,0.127,0.507,0.605,0.0646,1.38,0.109,0.0986,0.109,0.224
CCTAGGC,0.0178,-0.13,-0.014,0.273,-0.0771,-0.758,-0.0301,-2.15e-05,-0.194,-0.13
GTGTAAC,-0.0756,0.0666,0.252,0.768,-0.0251,1.86,0.0598,0.0965,0.0643,0.0897
TCAGCGC,-0.027,-0.102,-0.828,-0.427,-0.00258,-0.961,0.194,-0.109,0.0421,-0.16
TCGACAA,0.0755,-0.0604,0.125,0.597,-0.062,0.834,0.0739,0.00527,0.0279,0.173
GGCGATA,0.14,0.0193,0.262,1.04,-0.0996,1.64,-0.0664,0.19,0.0471,-0.0144
AAAGAAG,0.0865,0.121,-0.729,-0.306,0.0791,-1.06,0.429,0.0997,0.0749,0.087
CGTCATC,0.0761,0.0619,0.185,0.364,0.0546,-0.0901,0.0532,-0.034,0.172,0.117
CGTCGAG,-0.00426,0.0332,-0.0346,0.0364,-0.00558,-0.741,0.132,0.0787,0.0453,-0.0287
CGGGGGA,-0.0314,0.0284,0.65,1.04,-0.0419,1.74,0.082,-0.0487,-0.0365,-0.0822
TACCTTA,-0.143,-0.188,-0.309,-2.51,-0.0192,-0.579,-1.18,-0.122,-0.148,-0.212
AGTCAAC,0.0439,0.0124,0.128,-0.784,-0.0254,-0.296,-0.121,-0.023,0.0786,0.0346
TATCCCG,-0.142,-0.0186,-0.855,-0.211,-0.0426,-1.08,-0.341,-0.0819,-0.0823,-0.124
GCCCTCC,0.148,0.193,0.274,0.602,0.108,0.859,0.171,0.0349,0.0983,0.0158
GCGCACC,-0.0464,0.0124,0.0666,0.2,-0.101,0.0871,-0.0276,-0.0604,0.023,-0.0431
CGCTCTA,-0.0786,-0.0425,-0.0832,-0.83,-0.0313,-0.403,-0.173,-0.00759,-0.0346,0.0289
AGAGTGA,-0.0512,0.0343,-0.00559,0.249,-0.0192,-0.128,0.052,-0.004,-0.0244,-0.0182
CAAATAG,0.0709,-0.0361,-0.704,-0.442,0.0509,-1.02,0.231,0.0381,0.0534,0.00736
CTCTAGG,-0.0575,0.0153,0.201,1.2,0.0564,0.881,0.107,0.0787,-0.0724,-0.0248

# — the supplement of paper PMC7826260
